PubChem BioAssay AID1159614 (National Center for Advancing Translational Sciences (NCATS), 2016)
The whole screen tested about 45,000 compounds, of which about 65 (0.1%) were called active. The call rests on the fitted dose curve; in most records, active means well fitted activation curve with a large enough effect; inconclusive means small, poorly fitted or top-dose-only effect; inactive means no such curve, though single readings can be large or run the other way. The list shows a part of the results.

Target: Galactocerebrosidase (Homo sapiens) (UniProt P54803)
Assay: A Novel Cell-Based Assay to Identify Small Molecules for B -Galactocerebrosidase; further: 0% is about no effect; nearly all actives have a fitted effect of over 65% in size
Conditions: 145M-Twi-hGALC-G270D cells (Twitcher mouse brain line with human GALC G270D), HMU-beta-Gal fluorescence, 48 h; series mostly up to 57.5 µM; activation: at the top concentration
Summary of the method: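 Fluorogenic HMU-b-Gal hydrolysis (0.1 mM final, pH 5.2 citrate-phosphate with 1 mg/mL sodium taurocholate; carbonate stop buffer) measures mutant GALC activity after compound treatment of live 145M-Twi Twitcher brain cells stably carrying human GALC-G270D, with wild-type GALC line alongside; activation sought.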

Chain of UniProt P54803 (P54803 whole entry, looked up): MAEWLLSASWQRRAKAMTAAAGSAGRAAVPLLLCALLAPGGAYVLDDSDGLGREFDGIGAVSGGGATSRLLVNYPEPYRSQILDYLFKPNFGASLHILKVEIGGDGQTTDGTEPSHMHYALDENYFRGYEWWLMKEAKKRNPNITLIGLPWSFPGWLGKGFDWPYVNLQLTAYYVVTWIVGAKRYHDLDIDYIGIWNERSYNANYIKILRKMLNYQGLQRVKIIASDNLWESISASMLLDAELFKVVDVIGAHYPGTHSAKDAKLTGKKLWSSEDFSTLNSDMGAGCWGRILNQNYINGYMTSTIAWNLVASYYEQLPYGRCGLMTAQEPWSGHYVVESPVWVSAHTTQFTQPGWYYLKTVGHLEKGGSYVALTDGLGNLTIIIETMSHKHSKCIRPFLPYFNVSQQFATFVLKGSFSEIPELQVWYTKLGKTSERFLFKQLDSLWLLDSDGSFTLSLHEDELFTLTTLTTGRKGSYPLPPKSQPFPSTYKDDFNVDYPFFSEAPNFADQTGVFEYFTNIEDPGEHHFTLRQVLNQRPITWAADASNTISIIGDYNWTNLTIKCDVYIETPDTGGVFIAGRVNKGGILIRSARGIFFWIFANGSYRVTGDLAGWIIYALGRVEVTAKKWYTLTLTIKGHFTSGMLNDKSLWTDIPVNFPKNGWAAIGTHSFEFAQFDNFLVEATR

SMILES | activation
COc1cc(NC(=O)CN2CCCN(S(=O)(=O)c3ccc(F)cc3)CC2)cc(OC)c1 | inactive: -20.5%
C=CCc1cccc2cc(-c3nc4ccc(C(=O)O)cc4[nH]3)c(=O)oc12 | inactive: -15.6%
CCOC(=O)CCCCN(Cc1ccccc1F)S(=O)(=O)c1ccc(F)c(C(=O)Nc2cc(Cl)cc(Cl)c2)c1 | inactive: -3.27%
COc1cc(-c2noc(-c3ccc(NC4CCCC4)c([N+](=O)[O-])c3)n2)cc(OC)c1OC | inactive: -17.9%
COc1ccc(-c2noc(-c3cc(-c4ccc(F)cc4)n[nH]3)n2)cc1 | inactive: -21.5%
O=C(NCc1ccc(F)cc1)c1nnc(Cc2cccc(F)c2)o1 | inactive: -22.1%
CCOc1ccc(NC(=O)Nc2cc3c(cc2N2CCCCC2)n(C)c(=O)n3C)cc1 | inactive: -31.4%
CCOC(=O)N1CCN(c2ncc3c(n2)CC(c2ccc(Cl)cc2)CC3=O)CC1 (stereo unspecified) | inactive: -20.2%
CC(=O)NC(C)c1nc2ccccc2n1Cc1ccccc1Cl (stereo unspecified) | inactive: 1.52%
CCOCCCNC(=O)c1ccc(Cn2c(=O)c3cccn3c3cccnc32)cc1 | inactive: -9.66%
COc1ccc(C2C(C(=O)Nc3cccnc3)=C(C)Nc3nc(SCc4ccccc4)nn32)cc1 (stereo unspecified) | inactive: -7.65%
Cc1ccc(C)c(NC(=O)C2CCCN2S(=O)(=O)c2ccc3c(c2)n(C)c(=O)c(=O)n3C)c1 (stereo unspecified) | inactive: -24.7%
Cc1ccc(-c2cc3nccc(-c4cc([N+](=O)[O-])ccc4O)n3n2)cc1 | inactive: 1.64%
CCN1CCN(c2cc(C)c3cc(NC(=O)/C=C/c4cccc(OC)c4OC)ccc3n2)CC1 | inactive: -12.4%
COc1ccc(C2=NC(C)(C)N(CC(=O)Nc3cc(OC)cc(OC)c3)C2=O)cc1 | inactive: -15.1%
CN(c1ccc(F)cc1)S(=O)(=O)N1CCCC(C(=O)NCCc2ccccc2)C1 (stereo unspecified) | inactive: -12.9%
Cc1nc2ccc(S(=O)(=O)NC(CC(C)C)C(=O)NCc3ccc(Cl)cc3)cc2s1 (stereo unspecified) | inactive: -19.8%
Cc1c(C(=O)OC2CCCCCC2)[nH]c2c1C(=O)CC(c1ccccc1)C2 (stereo unspecified) | inactive: -24.4%
CCOC(=O)C1CCN(C(=O)c2ccc3c(c2)sc2nc(-c4ccc(OC)cc4)cn23)CC1 | inactive: 9.25%
CCOc1ccc(S(=O)(=O)NCc2nc3cccnc3n2Cc2ccccc2OC)cc1 | inactive: -4.32%
CCCCNC(=O)CSc1nc2n[nH]c(C)c2c(=N)n1-c1cccc(C)c1 | inactive: -9.45%
CCCOc1ccc(-c2nc3ccc(Br)cc3c(=O)o2)cc1 | inactive: -14.2%
CCCCN(CC)CCCNC(=O)c1cc2c(=O)oc3ccc(C)cc3c2s1 | inactive: 2.17%
CC1=C(C(=O)N2CCN(c3ccc(Cl)cc3)CC2)C2(CCC(C)CC2)OC1=O (stereo unspecified) | inactive: 6.15%
O=C(Cn1c(=O)n(Cc2ccccc2)c(=O)c2sc3ccccc3c21)Nc1ccc(F)cc1 | inactive: -12.2%
O=C(COc1ccc(Cl)cc1)NCC(c1cccs1)S(=O)(=O)c1ccc(F)cc1 (stereo unspecified) | inactive: 3.69%
